From the supplement of paper PMC12355420
Counter-ions that a name gives are not always drawn. Some of the results follow. Repeats are few or missing, and single values can be far off.

test system: HeLa VPS33A reporter cells; experiment: relative cell viability (CellMask signal) vs DMSO (fraction of DMSO); HeLa model of a glycosaminoglycan (GAG) storage disease; KI is knock-in and KO knock-out; SDC1 is syndecan 1; higher = less cytotoxic; conditions: 50 µM; 24 h
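Also: primary screen of an FDA-approved drug library in HeLa reporter cells in 96-well format, CellMask signal normalized to DMSO-treated wells set as 1, under 0.5 deemed highly cytotoxic.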

SMILES | relative cell viability
Cc1cc2c(C(N)=O)cccc2n1-c1nc2c(c(NCc3ccccc3)n1)COCC2 | 0.262
CC1=C(C(=O)OC(C)C)C(c2cccc([N+](=O)[O-])c2)C(C(=O)OC2CN(C(c3ccccc3)c3ccccc3)C2)=C(N)N1 (stereo unspecified) [Azelnidipine] | 0.00845
CNC(=O)c1cc(Oc2ccc(NC(=O)Nc3ccc(Cl)c(C(F)(F)F)c3)cc2)ccn1 [Sorafenib] | 0.0067
Nc1ccc(O)cc1 [4-Aminophenol] | 0.00382
CC/C(=C(\c1ccccc1)c1ccc(OCCN(C)C)cc1)c1ccccc1 [Tamoxifen Citrate] | 0.00953
COc1cc2nc(N3CCN(C(=O)c4ccco4)CC3)nc(N)c2cc1OC [Prazosin HCl] | 0.0051
CC(C)(C)Cn1c(N)nc2ccc(-c3[nH]c(C(C)(C)C)nc3-c3ccc(F)cc3)nc21 | 0.00454
C[n+]1cc2c3c(ccc2c2ccc4cc5c(cc4c21)OCO5)OCO3 [Sanguinarine chloride] | 0.00586
CC(=O)O[C@H]1C(=O)[C@@]2(C)[C@H]([C@H](OC(=O)c3ccccc3)[C@]3(O)C[C@H](OC(=O)[C@H](O)[C@@H](NC(=O)c4ccccc4)c4ccccc4)C(C)=C1C3(C)C)[C@]1(OC(C)=O)CO[C@@H]1C[C@@H]2O [Paclitaxel (Taxol)] | 0.0337
CC1=CC(=O)c2ccccc2C1=O [Menadione] | 0.00699
COc1cc2ncnc(Nc3ccc(F)c(Cl)c3)c2cc1NC(=O)/C=C/CN1CCCCC1 | 0.0126
